The campaign covered roughly 310,000 compounds. About 2,200 (0.71%) showed an effect of 50% or more. The effect is printed as a negative number. This is one part of the list.
Molecular target: human ether-à-go-go-related gene (hERG) potassium channel (human, UniProt Q12809)
Test: primary screen, population patch clamp on CHO cells stably expressing hERG

Sequence of human ether-à-go-go-related gene (hERG) potassium channel (Q12809 whole entry, looked up): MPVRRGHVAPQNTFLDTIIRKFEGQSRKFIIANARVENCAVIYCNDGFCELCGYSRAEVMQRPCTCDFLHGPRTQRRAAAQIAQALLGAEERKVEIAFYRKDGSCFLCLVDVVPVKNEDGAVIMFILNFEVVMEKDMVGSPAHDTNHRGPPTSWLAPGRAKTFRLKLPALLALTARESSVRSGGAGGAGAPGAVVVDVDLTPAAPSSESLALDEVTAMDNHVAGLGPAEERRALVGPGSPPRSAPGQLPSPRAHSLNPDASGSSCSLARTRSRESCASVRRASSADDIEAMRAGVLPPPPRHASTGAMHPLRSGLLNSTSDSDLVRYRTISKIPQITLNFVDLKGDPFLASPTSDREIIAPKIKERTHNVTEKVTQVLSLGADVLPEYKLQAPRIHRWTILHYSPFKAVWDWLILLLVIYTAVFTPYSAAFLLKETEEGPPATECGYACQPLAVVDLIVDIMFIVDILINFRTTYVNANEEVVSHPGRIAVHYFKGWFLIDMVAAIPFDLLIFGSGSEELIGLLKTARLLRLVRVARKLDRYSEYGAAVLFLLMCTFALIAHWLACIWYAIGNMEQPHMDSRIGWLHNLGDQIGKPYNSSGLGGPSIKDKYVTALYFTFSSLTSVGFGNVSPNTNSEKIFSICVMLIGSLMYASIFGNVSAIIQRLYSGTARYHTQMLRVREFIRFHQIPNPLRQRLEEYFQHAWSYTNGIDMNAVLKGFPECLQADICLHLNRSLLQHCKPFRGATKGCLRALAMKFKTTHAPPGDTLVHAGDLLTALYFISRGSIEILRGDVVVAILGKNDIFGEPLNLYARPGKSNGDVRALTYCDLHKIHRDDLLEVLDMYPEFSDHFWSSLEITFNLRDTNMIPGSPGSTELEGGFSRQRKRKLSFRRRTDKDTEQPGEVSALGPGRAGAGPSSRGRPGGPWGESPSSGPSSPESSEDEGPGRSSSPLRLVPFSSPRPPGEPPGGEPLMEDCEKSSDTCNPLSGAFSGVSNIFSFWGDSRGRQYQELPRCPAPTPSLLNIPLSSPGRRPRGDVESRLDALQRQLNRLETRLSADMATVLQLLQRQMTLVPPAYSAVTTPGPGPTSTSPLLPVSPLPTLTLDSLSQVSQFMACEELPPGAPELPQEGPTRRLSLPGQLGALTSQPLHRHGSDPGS

Structure (SMILES) | hERG current change (%, negative = inhibition) at 1uM [%]
CCc1cccc(NS(=O)(=O)c2c(C)nc3scc(C)n3c2=O)c1 | 17.3
Cc1ccc(C(CCN(Cc2ccccc2)C(=O)c2ccco2)c2ccco2)cc1 (centres unmarked) | 9.64
Cc1ccc(S(=O)(=O)N(C)c2ccccc2C(=O)N2CCOCC2)cc1 | 6.45
C=CCn1c(=S)[nH]c2sc3c(c2c1=O)CCCC3 | 12.8
CCc1cc(CNC(=O)c2ccc3nc(Cc4ccc(OC)c(OC)c4)oc3c2)on1 | 2.96
CCCc1cc(C(=O)O)c2ccccc2n1 | -0.521
CCOc1ccc(C2c3c(oc4ccccc4c3=O)C(=O)N2CCCN2CCOCC2)cc1 (centres unmarked) | 16
Cc1ccc(C(=O)NCc2ccc(Cl)c(Cl)c2)o1 | 9.21
COc1ccc(-c2ccc(SCC(=O)c3cccs3)nn2)cc1OC | 11.8
CSc1ccc(CN2CCC(CO)(Cc3ccc(Cl)cc3)CC2)cc1 | -29.5
CC(C)Sc1ccc([N+](=O)[O-])cc1C(=O)Nc1ccncc1 | 12
CCN(CC)c1ccc(/C=C2/C(=O)ON=C2C)cc1 | -1.72
CC1(C)CC(=O)N(c2cccc(C(F)(F)F)c2)C(=O)C1 | 19.4
O=C(NNC(=O)c1ccc(-c2ccccc2)cc1)Nc1ccccc1 | 9.55
O=C(CC1SCCNC1=O)Nc1cccc([N+](=O)[O-])c1 (centres unmarked) | 10.7
COc1ccc(C(=O)C(C)[n+]2ccc(-c3nnc4n3CCCCC4)cc2)cc1.[Br-] (centres unmarked) | -7.71
CCC(=O)NCCc1nc2cc(NC(=O)COc3ccccc3)ccc2n1C | 18
CC(=O)c1cccc(NC(=O)C(C)OC(=O)CN2C(=O)NC(C)(C)C2=O)c1 (centres unmarked) | 10.4
CC(=O)c1cccc(NC(=S)NCCc2ccc(F)cc2)c1 | 14.5
COc1ccc(C(=O)n2nc(C)cc2C)cc1OC | -6.72
Cc1cccc(NS(=O)(=O)c2ccc(-n3cccn3)cc2)c1C | 24.8
O=C(CNCc1ccco1)Nc1ccc(Oc2ccccc2)cc1.O=C(O)C(=O)O | 8.01

Structure (SMILES) | hERG current change (%, negative = inhibition) at 1uM [%]
C[C@H]1C=CC(=O)O[C@H]1c1ccccc1 | 12.1
Cc1cc(=O)oc2cc(OCC(=O)OCC(=O)Nc3ccc(C(C)C)cc3)ccc12 | 10.8
COc1ccc(Cn2c(CCC(=O)Nc3ccc(C)c(C)c3)nc3cccnc32)cc1 | 18.6
O=C(CN1CCOCC1)Nc1c(Cl)cc(Cl)cc1Cl | 12.2
CCCCn1c2nc3ccccc3nc2c2c(=O)n(CCC(C)C)cnc21 | 9.87
CCOC(=O)C1C(=O)C=C(c2ccc(Br)cc2)CC1c1ccco1 (centres unmarked) | 14.6
Cc1ccc(-n2c(NN)nc3ccccc3c2=O)c(C)c1 | 17
COc1cc2oc3ccccc3c2cc1N(CC(=O)N1CCCCC1)S(=O)(=O)c1ccc(C)cc1 | 6.03
COc1ccc(/C=N/NC(=O)CCCCCNC(=O)c2ccccc2)cc1 | -0.422
CCN(CC(=O)Nc1ccc(NC(C)=O)cc1)CC(=O)Nc1ccc(Cl)c(Cl)c1.O=C(O)C(=O)O | 14.3
Cc1nc([N+](=O)[O-])c(C(=O)OCc2ccccc2F)n1C | 6.26
Cc1ccc(NC(=O)CCC(=O)n2nc(C)cc2C)c(C)c1 | 1.81
CC(C)(C)OC(=O)N1CCC[C@H]1c1nnc(SCC(=O)Nc2cccc(Cl)c2)o1 | 11.6
O=[N+]([O-])c1ccc(C2NS(=O)(=O)N=C3CCCCCN32)cc1 (centres unmarked) | 11.7
COC(=O)c1ccc(N2C(=O)C3CC(C)=C(C)CC3C2=O)cc1 (centres unmarked) | 9.5
CN(C1CCCCC1)S(=O)(=O)c1cccc(C(=O)Nc2ccccn2)c1 | -7.98
O=c1oc2ccccc2cc1-c1nc2c(s1)CCc1ccccc1-2 | 6.26
CCC(C)n1c(/C=C/c2ccccc2)nc2ccccc21 (centres unmarked) | 6.21
Cn1cc(S(=O)(=O)Cc2ccc(F)cc2)c2ccccc21 | 10.2
COc1ccc(/C=N/NC(=O)C2CC2)c(OC)c1OC | 15.4
CCCCOC(=O)COc1cc(C)cc2oc(=O)c3c(c12)CCC3 | 4.2
CS/C(=C\[N+](=O)[O-])Nc1ccc(C)cc1 | 7.93

— PMC4336329 (PLoS ONE, 2015)
